Results are given in words; binding and its absence hold for the method and conditions named.
Target: Full-length Xenopus laevis Mcm10 L104D/L108D (2D mutant), purified (Xenopus laevis) (UniProt Q5EAW4)
Assay: AUC; sedimentation velocity, 42,000 rpm, 4°C; full-length Mcm10 1.6 mg/ml (2D mutant 1.0 mg/ml) in PBS pH 7.4, 150 mM NaCl, 0.3 mM TCEP; c(s) analysis; both purified

- binding: no binding (tested: 1.0 mg/ml)
B1: Full-length Xenopus laevis Mcm10 L104D/L108D (2D mutant), purified (protein, UniProt Q5EAW4 1-860)
chain: MEVDADLELLTSLLEENEAAERNGVVSHEASSELDEFDELFDGDEDGSYHGSDNGTEEQTIGGVEEDFTTLFGDIDDIKEEEAAASDTKKQSSSVCQEKSKDEDEDEDRKMQAQMKKLQEQLQKTALAKTSSPGNPKKSPENKMVQSGKTSRTSPLIERKKTDSNTVAPQLTSPTVPKAKLPDAPKRKQNLSDKSPVQKKMASFLSPPEKSSARPGQSTATQPITNTLKSPVGQQYHVEKFSGLRIRKPRVSSSEMERKMNGRKLIRLAQLQNKIATEKLEEEDWVTFGVIVKKITPQSSNNGKTFSIWRLNDLKDLDKYISLFLFGDVHKEHWKTDQGTVIGLLNANPMKPKEGTDEVCLSVDNPQKVLLMGDAVDLGTCKARKKNGDPCTQMVNLNDCEYCQYHVQAQYKKVSSKRADLQSSYSGHVPKKMARGANGLRERLCQGGFHYGGVSSMAYAATLGSTTAPKKTVQSTLSNMVVRGAEAIALEARQKIAAAKNVVQTDEFKELMTLPTPGALNLKKHLSGVSPQANCGKEGQPIQSISASTLLKQQKQQMLNARKKRAEESQKRFLESTEKSEKSSTLTSSACSVFQSPKQGAEFPNAQKMATPKLGRGFAEGDDVLFFDISPPPAPKLSTSAEAKKLLAIQKLQAKGQTLAKTDPNSIKRKRGSSSEELVAQRVASHASTSPKSPDENEPAIKKHRDQLAYLESEEFQKILNAKSKHTGILKEAEVEIQEHYFDPLVKKEQLEEKMQSIREQSCRVVTCKTCKYTHFKPKETCVSENHDFHWHNGVKRFFKCPCGNRTISLDRLPKKHCSTCGLFKWERVGMLKEKTGPKLGGETLLPRGEEHGKFLNSLK

Source: article PMC3720919, “Mcm10 Self-Association Is Mediated by an N-Terminal Coiled-Coil Domain” (PLoS ONE, 2013)
